{"source": "PubChem BioAssay AID360", "about": "(National Center for Advancing Translational Sciences (NCATS), 2006)", "note": "Screen size: about 48,000 compounds; about 550 (1.1%) were called active. Not shown: some 4% with an inconclusive outcome. Cut-off read from the data, not from the text of the source: active = potency below about 15 µM; inconclusive = mostly about 16 µM to 33 µM; inactive = weaker than that. The list shows a part of the results. Potency is the fitted concentration of half-maximal effect.", "data": [{"molecular_target": "Lysosomal acid glucosylceramidase (Homo sapiens) (UniProt P04062)", "sequence (P04062 whole entry, looked up)": "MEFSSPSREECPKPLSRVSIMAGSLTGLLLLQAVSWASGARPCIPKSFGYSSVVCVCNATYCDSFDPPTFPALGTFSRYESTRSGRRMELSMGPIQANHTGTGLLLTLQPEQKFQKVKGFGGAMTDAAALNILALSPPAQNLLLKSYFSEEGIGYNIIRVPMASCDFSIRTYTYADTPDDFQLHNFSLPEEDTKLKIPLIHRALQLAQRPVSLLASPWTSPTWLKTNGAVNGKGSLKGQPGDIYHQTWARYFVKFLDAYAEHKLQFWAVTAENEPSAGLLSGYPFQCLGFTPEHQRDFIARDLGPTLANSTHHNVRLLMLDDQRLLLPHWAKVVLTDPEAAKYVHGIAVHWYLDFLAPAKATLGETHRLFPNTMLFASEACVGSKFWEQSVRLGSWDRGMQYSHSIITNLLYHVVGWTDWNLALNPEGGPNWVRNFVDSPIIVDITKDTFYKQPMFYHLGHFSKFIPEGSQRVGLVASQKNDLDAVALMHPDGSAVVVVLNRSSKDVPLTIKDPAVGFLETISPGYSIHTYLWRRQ", "assay": "Glucocerebrosidase;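 note: the screen sought inhibitors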", "details": "purified enzyme, resorufin glucoside fluorescence (screen aimed at inhibitors), 20 min", "summary_of_the_method": "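Normal human glucocerebrosidase (0.2 nM final) was assayed with resorufin β-D-glucopyranoside (30 uM final) in 50mM citric acid/KH2PO4, 10mM sodium taurocholate, 0.01% tween-20, pH 5.9. Compounds were titrated; fluorescence (Ex 548, Em 600) read after 20 min at RT.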", "values": [{"compound": "O=C(CCN1C(=O)c2ccccc2C1=O)Nc1ccc(-c2cn3ccsc3n2)cc1", "Potency": "inactive: > 76.9 µM"}, {"compound": "CC1CC(C)CN(CCCNC(=O)COc2cc(=O)n(C)c3ccccc23)C1", "note": "(stereo unspecified)", "Potency": "inactive: > 76.9 µM"}, {"compound": "Cc1noc(C)c1CSc1nnc(-c2ccncc2)n1-c1ccc(Cl)c(Cl)c1", "Potency": "inactive: > 76.9 µM"}, {"compound": "COc1cc(OC)c(OC)cc1CN1CCN(c2ccccc2OC)CC1", "Potency": "inactive: > 76.9 µM"}, {"compound": "COc1ccc2nc(N3CCCC(O)C3)c(C#N)cc2c1", "note": "(stereo unspecified)", "Potency": "inactive: > 76.9 µM"}, {"compound": "CCc1nnc(NC(=O)Cn2nnc(-c3ccccc3F)n2)s1", "Potency": "active: 4.46 µM"}, {"compound": "Cc1ccc(S(=O)(=O)c2c(N)n(/N=C/c3ccco3)c3nc4ccccc4nc23)cc1", "Potency": "inactive: > 76.9 µM"}, {"compound": "COc1ccc(CCN2C(=NC(=O)CCC(=O)O)SC3CS(=O)(=O)CC32)cc1OC", "note": "(stereo unspecified)", "Potency": "inactive: > 76.9 µM"}, {"compound": "CCOC(=O)C1=C(O)C(=O)N(c2ccc(S(N)(=O)=O)cc2)C1c1ccccc1", "note": "(stereo unspecified)", "Potency": "inactive: > 76.9 µM"}, {"compound": "CC(NC(=O)c1ccc(CS(=O)(=O)Cc2ccccc2F)o1)c1ccc2c(c1)OCCO2", "note": "(stereo unspecified)", "Potency": "inactive: > 76.9 µM"}, {"compound": "COc1ccc(C(c2nnnn2Cc2cccs2)N2CCN(c3ccccc3)CC2)cc1OC", "note": "(stereo unspecified)", "Potency": "inactive: > 76.9 µM"}, {"compound": "Cc1nn(CC(C)C)c(=S)[nH]c1=O", "Potency": "inactive: > 76.9 µM"}, {"compound": "O=C(Nc1ccon1)c1cccc(S(=O)(=O)N2CCCC2)c1", "Potency": "inactive: > 76.9 µM"}, {"compound": "Cc1ccc2nc3c(cc(C(=O)NCCCn4ccnc4)n3C)c(=O)n2c1", "Potency": "inactive: > 76.9 µM"}, {"compound": "Cn1c(=O)c2c(nc(SCC(=O)Nc3ccccc3N3CCCCC3)n2C)n(C)c1=O", "Potency": "inactive: > 76.9 µM"}, {"compound": "CC1(C)CC(=O)C2=C(C1)Nc1ccccc1N=C2", "Potency": "inactive: > 76.9 µM"}, {"compound": "CCOc1ccc(OCC)c(NC(=O)CN(c2ccc(C)cc2)S(=O)(=O)c2c(C)noc2C)c1", "Potency": "inactive: > 76.9 µM"}, {"compound": "Cc1csc(SCC(=O)NCc2cccs2)n1", "Potency": "inactive: > 76.9 µM"}, {"compound": "CC(=O)Nc1ccc(S(=O)(=O)NCCc2ccccc2)cc1", "Potency": "inactive: > 76.9 µM"}, {"compound": "COC(=O)c1ccccc1NC(=O)N1CSC[C@H]1C(=O)OC", "Potency": "inactive: > 76.9 µM"}, {"compound": "Cc1ccc(CN(CC2CCCO2)C(=O)CN2C(=O)C(C(C)C)Oc3ccccc32)o1", "note": "(stereo unspecified)", "Potency": "inactive: > 76.9 µM"}, {"compound": "CCOC(=O)N1CCN(C(=O)c2oc3ccc(S(=O)(=O)N4CCCCCC4)cc3c2C)CC1", "Potency": "inactive: > 76.9 µM"}, {"compound": "O=C(Nc1ccccc1-c1ccccc1)NC1CCN(CC(=O)N2CCOCC2)CC1", "Potency": "inactive"}, {"compound": "COc1ccc(OC)c(-c2cc(C(=O)Nc3cc(C)n(Cc4ccc(Cl)cc4)n3)no2)c1", "Potency": "inactive: > 76.9 µM"}, {"compound": "Cn1cc(C(=O)NC2CCCCCCC2)c(=O)c2cc(S(=O)(=O)N3CCCC3)ccc21", "Potency": "inactive: > 76.9 µM"}, {"compound": "Cc1cccc2cc(C(c3nnnn3Cc3ccccc3)N3CCN(c4ccccc4)CC3)c(=O)[nH]c12", "note": "(stereo unspecified)", "Potency": "inactive: > 76.9 µM"}, {"compound": "COCCNC(=O)C(C)OC(=O)c1nsc(Cl)c1Cl", "note": "(stereo unspecified)", "Potency": "inactive: > 76.9 µM"}, {"compound": "CCCNC(=O)CSc1nnc(-c2ccco2)n1C", "Potency": "inactive: > 76.9 µM"}, {"compound": "O=C(Nc1ccccc1)OCc1ccccn1", "Potency": "inactive: > 76.9 µM"}, {"compound": "COc1cccc(NC2=CC(=O)CC(C)(C)C2)c1", "Potency": "inactive: > 76.9 µM"}, {"compound": "COc1ccc(CNC(=O)CSc2ncn[nH]2)cc1", "Potency": "inactive: > 76.9 µM"}, {"compound": "CC1CCN(C(=O)COC(=O)c2cc3ccccc3cc2O)CC1", "Potency": "inactive: > 76.9 µM"}, {"compound": "CCC(=O)Nc1cc(=O)[nH]c2ncnn12", "Potency": "inactive: > 76.9 µM"}, {"compound": "Cc1cc(C)c2nc(-c3ccccn3)cc(C(=O)Nc3cc(C)on3)c2c1", "Potency": "inactive: > 76.9 µM"}, {"compound": "COc1ccc(C(=O)CSc2nnc(-c3ccco3)n2CC2CCCO2)cc1", "note": "(stereo unspecified)", "Potency": "inactive: > 76.9 µM"}, {"compound": "O=C(O)CCN1C(=O)CC2(CCCCC2)C1=O", "Potency": "inactive: > 76.9 µM"}, {"compound": "O=C(Nc1ccccc1C(=O)OCc1nnc(-c2ccccc2)o1)c1ccco1", "Potency": "inactive: > 76.9 µM"}, {"compound": "COCC(C)OC(=O)C(C#N)c1nc2ccccc2nc1N1CCN(Cc2ccccc2)CC1", "note": "(stereo unspecified)", "Potency": "inactive: > 76.9 µM"}, {"compound": "N#Cc1ccc(CSc2nnc(-c3ccccn3)n2-c2ccc(Cl)cc2)cc1", "Potency": "inactive: > 76.9 µM"}, {"compound": "O=C(O)CC1SC(=Nc2ccccc2)N(c2ccccc2)C1=O", "note": "(stereo unspecified)", "Potency": "inactive: > 76.9 µM"}, {"compound": "CCn1c(SCC(N)=O)nnc1-c1ccc2[nH]c(C)c(C)c2c1", "Potency": "inactive: > 76.9 µM"}, {"compound": "Cc1ccc(S(=O)(=O)N2CCN(C(=O)CN3CCOCC3)C2C(C)C)cc1", "note": "(stereo unspecified)", "Potency": "inactive: > 76.9 µM"}, {"compound": "O=C(NCc1ccco1)c1cc(-c2cccs2)on1", "Potency": "inactive: > 76.9 µM"}, {"compound": "COc1cc(C)nc(N2CCC(C(=O)NC3CCCCC3)CC2)n1", "Potency": "inactive: > 76.9 µM"}, {"compound": "CSc1nnc2c3cc(C)ccc3n(Cc3ccccc3)c2n1", "Potency": "inactive: > 76.9 µM"}, {"compound": "O=C(COC(=O)c1ccc(S(=O)(=O)N2CCOCC2)cc1)NC1CCCCCC1", "Potency": "inactive: > 76.9 µM"}, {"compound": "CCCCN(C(=O)NC(=O)Nc1ccccc1OC)S(C)(=O)=O", "Potency": "inactive: > 76.9 µM"}, {"compound": "Cc1ccc(S(=O)(=O)N2CCC(C(=O)N[C@H](C(=O)NCc3ccco3)C(C)C)CC2)cc1", "Potency": "inactive: > 76.9 µM"}, {"compound": "CC(O)c1nc2ccccc2n1Cc1nnc(-c2ccc(Cl)cc2)o1", "note": "(stereo unspecified)", "Potency": "inactive: > 76.9 µM"}, {"compound": "CN1C(=O)/C(=C2/C=Cc3ccccc3N2CCCS(=O)(=O)O)SC1=S", "Potency": "inactive: > 76.9 µM"}, {"compound": "CN(C)c1ccc(C(c2nnnn2CCOC(=O)Nc2ccc(Cl)cc2)N2CCOCC2)cc1", "note": "(stereo unspecified)", "Potency": "inactive: > 76.9 µM"}, {"compound": "CCOC(=O)c1cnc2sccn2c1=O", "Potency": "inactive: > 76.9 µM"}, {"compound": "NC(=O)C1CCN(C(=O)c2ccc(C(F)(F)F)cc2)CC1", "Potency": "inactive: > 76.9 µM"}, {"compound": "Nn1c(COc2ccccc2)nc2ccccc2c1=O", "Potency": "inactive: > 76.9 µM"}, {"compound": "CC(NC(=O)c1cn(C)c2ccc(S(=O)(=O)N3CCCC3)cc2c1=O)c1ccc2c(c1)OCCO2", "note": "(stereo unspecified)", "Potency": "inactive: > 76.9 µM"}, {"compound": "CCOc1ccc(-n2c(=O)cc(N3CCN(c4ccc(F)cc4)CC3)[nH]c2=O)cc1", "Potency": "inactive: > 76.9 µM"}]}]}
